Assay results taken from PubChem BioAssay AID2675 (National Center for Advancing Translational Sciences (NCATS), 2010).
The whole screen tested about 280,000 compounds, of which about 100 (0.036%) were called active. This list was built around the results that the source calls inconclusive (neither active nor inactive); the mix of calls is not that of the screen. The call rests on the fitted dose curve; in most records, active means well fitted inhibition curve with a large enough effect in the signal ratio, with a control signal flat (not every such curve was filed as active); inconclusive means small, poorly fitted or top-dose-only effect, or effect the other way, or a change in a side signal; inactive means no such curve, though single readings can be large or run the other way; the % refers to the signal ratio. Where the call is inconclusive, the potency comes from a doubtful curve fit. “Side channel” marks fits to a control or component signal instead of the main read-out.
On the % scale 0 is the no-effect control and ±100 the full control effect; potency means the concentration at half of the fitted maximal effect; tags describe the fitted curve by direction and shape or compound fluorescence and quenching.

Each compound was assayed against Muscleblind-like protein 1 (Homo sapiens) (UniProt Q9NR56) (assay: qHTS Assay for Inhibitors of MBNL1-poly(CUG) RNA binding). Conditions: TR-FRET MBNL1-His/biotin-(CUG)12 binding, 665/545 ratio; activity change, negative = inhibition: at 57.5 µM (top of the series).
UniProt Q9NR56, sequence (Q9NR56 whole entry, looked up): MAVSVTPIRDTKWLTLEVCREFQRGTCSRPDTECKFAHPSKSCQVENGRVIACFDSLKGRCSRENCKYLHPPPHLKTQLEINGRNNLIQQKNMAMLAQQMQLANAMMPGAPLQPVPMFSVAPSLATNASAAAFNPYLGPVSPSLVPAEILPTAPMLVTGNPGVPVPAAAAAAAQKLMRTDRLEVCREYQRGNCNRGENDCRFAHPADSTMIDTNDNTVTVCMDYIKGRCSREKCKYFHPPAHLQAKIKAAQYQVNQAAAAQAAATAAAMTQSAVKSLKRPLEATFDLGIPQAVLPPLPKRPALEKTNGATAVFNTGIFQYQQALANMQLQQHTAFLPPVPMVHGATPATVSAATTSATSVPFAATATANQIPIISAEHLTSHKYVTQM
In short: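 TR-FRET between His-tagged MBNL1 and biotin-(CUG)12 RNA, detected with Tb anti-His antibody (0.055 ng/ul) and streptavidin-XL665 (5 nM), 60 min at room temperature. Compounds titrated 92 nM to 58 uM; 665/545 nm ratio normalized to buffer and complex controls.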
In the case of CC(C)(C)NC(=O)COC(=O)c1snc(C(=O)NC2CCCCC2)c1N, the Potency is reported as inconclusive: 25.1 µM [quencher, side channel, partial curve].
CCOC(=O)c1c(/N=C/N(C)C)sc(C(=O)OC)c1C was tested, and the Potency was inconclusive: 35.5 µM [quencher, side channel, single point].
With CN1CCCC(CC2Oc3ccccc3Sc3ccccc32)C1 (stereo not drawn) the “activity change, negative = inhibition” value was inactive: -1.78%.
With CN(Cc1cccc(Cl)c1Cl)C(=O)c1ccc(NC(=O)CC#N)cc1 the Potency was inconclusive: 0.282 µM [fluorescent, side channel, partial curve].
Cc1cc(C)c(S(=O)(=O)Nc2ccnc(-c3cccnc3)n2)c(C)c1 was tested, and the Potency was inconclusive: 126 µM [inhibitor, partial curve].
In the case of COc1cccc(OCCn2cc(/C=N/NC(=O)c3ccncc3)c3ccccc32)c1, the Potency is reported as inconclusive: 39.8 µM [quencher, side channel, partial curve, poor fit].
For CCCCC(=O)NC(c1cccc([N+](=O)[O-])c1)c1c(OC(C)=O)ccc2ccccc12 (stereo not drawn), the “activity change, negative = inhibition” value was inactive: 3.69%.
With CN(c1ccc2nc3ccccc3c(=O)n2n1)C1CCCCC1 the Potency was inconclusive: 12.6 µM [quencher, side channel, partial curve].
O=C(Nc1ncc(Br)s1)C(Cc1ccccc1)n1cccc1 (stereo not drawn) was tested, and the “activity change, negative = inhibition” value was inactive: -13.7%.
With Nc1ccccc1-c1nc2ccccc2[nH]c1=O the Potency was inconclusive: 14.1 µM [quencher, side channel, partial curve].
With O=C(N/N=C/c1ccccn1)c1ccc([N+](=O)[O-])cc1Cl the Potency was inconclusive: 14.1 µM [quencher, side channel, partial curve].
Cc1onc(C(=O)Nc2sc3c(c2C(N)=O)CCCC3)c1[N+](=O)[O-] was tested, and the Potency was inconclusive: 14.1 µM [quencher, side channel, partial curve].
In the case of O=C(NC(=S)N(CCc1ccccc1)CCc1ccccc1)c1ccco1, the Potency is reported as inconclusive: 0.1 µM [fluorescent, side channel, partial curve, poor fit].
With Cc1ccc(CNC(=O)c2ccc([N+](=O)[O-])o2)cc1 the Potency was inconclusive: 14.1 µM [quencher, side channel, partial curve].
CS(=O)(=O)N(CC(=O)N1CCc2ccccc2C1)c1cccc([N+](=O)[O-])c1 was tested, and the Potency was inconclusive: 25.1 µM [quencher, side channel, partial curve].
In the case of Cc1cc(N2CCOCC2)c2c(N)c(C)cc(C)c2n1, the Potency is reported as inconclusive: 35.5 µM [quencher, single point].
O=C(NCC1COc2ccccc2O1)C1CCCN(S(=O)(=O)c2cccc3nsnc23)C1 (stereo not drawn) was tested, and the Potency was inconclusive: 3.55 µM [quencher, side channel, full curve].
CCOC(=O)c1c(N)sc(C(=O)Nc2ccccc2)c1C was tested, and the “activity change, negative = inhibition” value was inactive: -1.66%.
With O=C(O)CCC(=O)Nc1nc2ccc([N+](=O)[O-])cc2s1 the Potency was inconclusive: 14.1 µM [quencher, side channel, partial curve].
For CCCS(=O)(=O)N1CCN(C2CCC(C)CC2)CC1 (stereo not drawn), the Potency was inconclusive: 1.26 µM [quencher, side channel, full curve].
With Cn1c(=O)c2cc(NCc3ccccc3)nnc2n(C)c1=O the Potency was inconclusive: 7.94 µM [quencher, side channel, partial curve].
[O-]c1n[n+](-c2ccc(Cl)cc2Cl)cc2ccccc12 was tested, and the Potency was inconclusive: 10 µM [quencher, side channel, partial curve].
With NC(=O)c1cc[n+](CC(=O)c2ccc(NC(=O)c3ccccc3)cc2)cc1 the Potency was inconclusive: 15.8 µM [quencher, partial curve].
With Oc1ccc2ccccc2c1N=Nc1ccccc1F the “activity change, negative = inhibition” value was inactive: 2.81%.
O=C(NNc1ccc(-c2csnn2)cc1)c1ccccc1C(F)(F)F was tested, and the “activity change, negative = inhibition” value was inactive: 2.96%.
c1ccc(Nc2nc(-c3ccncc3)nc3ccccc23)cc1 was tested, and the Potency was inconclusive: 25.1 µM [fluorescent, side channel, partial curve].
For Nc1c(C(=O)Nc2ccccc2)sc2nc(-c3cccnc3)ccc12, the Potency was inconclusive: 15.8 µM [quencher, side channel, partial curve].
Cc1nc(C)c(-c2ccc(SCC(=O)Nc3ccccc3)nn2)s1 was tested, and the Potency was inconclusive: 31.6 µM [quencher, side channel, single point].
With CN(C)CCNC(=O)c1sc2nc(-c3ccccc3)cc(C(F)(F)F)c2c1N the “activity change, negative = inhibition” value was inactive: 19.6%.
With CCc1cc(C(=O)O)c(NC(=O)/C=C/c2ccc(OC)c(OC)c2)s1 the Potency was inconclusive: 14.1 µM [quencher, side channel, partial curve].
With O=C(N/C(=C\c1cn(-c2ccccc2)nc1-c1ccccc1)C(=O)N1CCOCC1)c1ccccc1 the Potency was inconclusive: 0.398 µM [fluorescent, side channel, partial curve].
COC(=O)[C@@H](NC(=O)N1CCN(c2cccc(C(F)(F)F)c2)CC1)C(C)C was tested, and the Potency was inconclusive: 0.126 µM [quencher, side channel, partial curve, poor fit].
CC12CN(C(=O)c3cccc([N+](=O)[O-])c3)C3(C#N)CC1CCC23C (stereo not drawn) was tested, and the Potency was inconclusive: 20 µM [quencher, side channel, single point].
In the case of C(=N\Nc1nc(-c2ccccc2)cs1)/c1ccncc1, the Potency is reported as inconclusive: 39.8 µM [fluorescent, side channel, single point].
For O=C(NCCCN1CCCCCC1)c1cc2c(=O)oc3ccccc3c2s1, the Potency was inconclusive: 14.1 µM [quencher, side channel, partial curve].
COc1cc(/C=N/n2c(=S)[nH]nc(C)c2=O)cc([N+](=O)[O-])c1O was tested, and the Potency was inconclusive: 31.6 µM [quencher, side channel, single point].
In the case of CC(=O)NC(Cc1ccccc1F)C(=O)NC1CCN(c2ncccc2[N+](=O)[O-])CC1 (stereo not drawn), the Potency is reported as inconclusive: 14.1 µM [quencher, side channel, partial curve].
With O=C(/C=C/c1ccc(Cl)cc1)N1CCN(c2ccc(Cl)cc2[N+](=O)[O-])CC1 the Potency was inconclusive: 39.8 µM [quencher, side channel, single point].
